± gives the standard deviation of the averaged measurements. This is one part of the list.
These sequences were tested on PfAP2-I AP2 domain 3 (GST-tagged) (assay: gcPBM binding intensity (ln(normalized median fluorescence intensity)); higher = stronger DNA binding).
Summary of the method: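 An Agilent 4 × 180k array of primer-extended double-stranded 36-bp intergenic genomic probes, with negative controls, was incubated for 1 h with GST-tagged P. falciparum DNA-binding domains expressed in E. coli. Alexa488 anti-GST antibody detected bound protein, scanned at 488 nm. Binding intensity is the highest Masliner-normalised natural-log median intensity across replicate spots of either probe orientation.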

Sequence | gcPBM binding intensity (ln)
ATACATCAAGGACACACACACACACGCACACGCACA [CACACA_site6310] | 8.34 ± 0.56
TTATGATGGTCTTTATAAGGGCACATTAAATTCGGC [TGCATGCA_negctrl_site166] | 8.34 ± 0.43
AAACTATTCACTATAATACATTAGAAGTGAATAAAA [TGCATGCA_negctrl_site498] | 7.56 ± 0.41
TGAAAAGGAAATTGTTGTACATATGTTTCTTCCTAA [XGTACX_site3932] | 7.55 ± 0.44
AATAGCAATTTGGGGTGTACACACACCTTATTTAAA [XGTACX_site2234] | 8.04 ± 0.23
TATATATAAATATTCAGTACATAGTGCTATTAAGTG [XGTACX_site1979] | 9.16 ± 0.057
CCATTATATCTAAGTACACACATTAATTTTTTTTTT [CACACA_site6115] | 8.05 ± 0.34
AGAAATTAATCGAGGTGTACGTACATCCAAATATAT [XGTACX_site7650] | 8.18 ± 0.32
ATATATTTAACAAGATGTACAATTTTATAAAAAATA [XGTACX_site2351] | 7.7 ± 0.35
TTTTTATAAAAAAATAGTACTCGTCTAATCTTATGT [XGTACX_site8532] | 7.79 ± 0.46
TATATATATATATATACACACAAAAAAATAAATTCT [CACACA_site98] | 9.44 ± 0.18
ATTTATTTTAATAATTGTACATGTTATTTTATATAT [XGTACX_site2667] | 7.68 ± 0.33
TACTTTTCATCTTCTTAACACACAAAAAAAAAAAAA [CACACA_site9290] | 8.05 ± 0.38
ATCATTTTTAAAGGAACACACAAAAAAAGTTATAAT [CACACA_site6761] | 7.89 ± 0.76
ATATATTATTATAACTGTACTTTTTTTGTGGTTAAT [XGTACX_site8266] | 8.14 ± 0.28
TATGCGTATATATAAATACACACCAAATGTTAATAT [CACACA_site1713] | 8.2 ± 0.76
CCATTTACATTGTGAAGTACTAAAAAAAAATGTAGA [XGTACX_site7882] | 7.94 ± 0.62
ACAAGGAATATAAAAAGTACATAAAATACATAAAAA [XGTACX_site1217] | 7.91 ± 0.74
ATATAAATATAAATATATATGTATAAATATAAATAT [CACACA_negctrl_site247] | 7.37 ± 0.44
TATGGATGTATTCATACATGCACACGTACATATTTA [TGCATGCA_site991] | 8.31 ± 0.25
ATAATTTGATGGTTAACACACATATATATTATATAT [CACACA_site2449] | 7.88 ± 0.69
TAAAAAATGTTATATACACACAGTATAAAAAAAAAT [CACACA_site7808] | 7.77 ± 0.73

Sequence | gcPBM binding intensity (ln)
CCACGTATAATATGTACACACACATAAATACAAAAA [CACACA_site4660] | 8.28 ± 0.028
AATTAAATTATAAGCACACACATATATATATATATA [CACACA_site3351] | 9.39 ± 0.49
CTTATTTCCTTTTGTAGTACCTTATAATATATATAA [XGTACX_site8873] | 8.28 ± 0.48
GGGAAGTAGTAGTAATGTACTTATTTATTATGTGAC [XGTACX_site3985] | 7.97 ± 0.56
TTATATATTTTTTGCACACCAAAAAAGAGAATATTC [CACACA_site2730] | 9.525 ± 0.021
TTCTATTTGTAAAATTGTACAAAATAAATAACAAAA [XGTACX_site1007] | 7.84 ± 0.43
TAATAATAGTACTCACATCAAAGTATTATTAAAAAT [TGCATGCA_negctrl_site496] | 7.83 ± 0.34
GCATTTCTACTAAAAATACACACGATGATACAACGA [CACACA_site1756] | 7.74 ± 0.64
TATAAATATAAATACACACACATATATATTATATAT [CACACA_site4496] | 7.59 ± 0.38
ATATATATATATATGTGTACATAATAACTTTGCTTA [XGTACX_site1255] | 9.32 ± 0.34
ACCTATTTCAAACACACACACACACTAGCAAACATA [CACACA_site4695] | 8.38 ± 0.42
TATATATATATATGTTGTACATATTTAAATGTTTAT [XGTACX_site5437] | 9.39 ± 0.39
ACAAAAAAGTAAAAAGTGCATGTAAAATATAAGTAT [GTGCAC_site9438] | 9.52 ± 0.4
AATAAATCTTTTTGTTGTACTAAAAATATTATTAGC [XGTACX_site3335] | 7.62 ± 0.22
TTAATATATTATATTTGTACATATATATATATACAA [XGTACX_site4798] | 7.57 ± 0.3
AAATTGTGTTCATCAGCACACACAACATCATGTAAT [CACACA_site8556] | 7.84 ± 0.64
CGAAAGAAAAAAAGCACACACAGTTTTGAGCAATGA [CACACA_site2109] | 7.59 ± 0.93
ACACATATGACAAATAGTACATAAATATATAAATAT [XGTACX_site7141] | 7.79 ± 0.28
TAAATATATAATTGTAGTACTGTTTTATGTTCATAA [XGTACX_site1020] | 7.64 ± 0.18
AAAAAATTTCAAATAACACACACTAATATATATATG [CACACA_site1426] | 7.76 ± 0.45
AATATTCACATTTGTTGTACATTCCTAGTTATATAA [XGTACX_site491] | 8.24 ± 0.49
AAGGAAAATTTTTGGTGTACACAAAAAAATCCAAAA [XGTACX_site3596] | 8.46 ± 0.057

From the supplement of paper PMC11417369
